Laboratory results taken from PubChem BioAssay AID686978 (National Center for Advancing Translational Sciences (NCATS), 2013).
In all, about 420,000 compounds went through this assay and about 64,000 (15%) were called active. The shares of active, inactive and inconclusive entries below differ from those in the screen. Calls come from the whole dose curve; as a rule, active = well fitted inhibition curve with a large enough effect; inconclusive = small, poorly fitted or top-dose-only effect; inactive = flat fitted curve, though single readings scatter. No potency is given beside an inconclusive call; the fits are too rough.

Assay: qHTS for Inhibitors of human tyrosyl-DNA phosphodiesterase 1 (TDP1): qHTS in cells in absence of CPT; note: nearly all actives have a fitted effect of over 55% in size
Details: DT40 Tdp1-/- hTDP1 cells, no CPT, ATP luminescence, 48 h; activity change, negative = growth inhibition: at 46.2 µM (top of the series) unless noted
Procedure, shortened: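 Compound effects on proliferation are scored in DT40 Tdp1-/-;hTDP1 cells in the absence of CPT. ATP levels (CellTiter-Glo luminescence) are recorded after a ≥48 hr, 37 °C incubation.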
% is set by controls: 0 for no effect and ±100 for the full control effect; potency is the fitted concentration of half-maximal effect; tags give direction and shape of the fitted curve.

| SMILES | activity change, negative = growth inhibition | Potency |
| --- | --- | --- |
| OCc1nnn(-c2cccc(C(F)(F)F)c2)c1CO | inactive: -1.81% | – |
| CN(C)c1ccc(CN(CC2CCCO2)C(=O)c2cc3ccccc3o2)cc1 (stereo unspecified) | – | inconclusive [inhibitor, single point] |
| NNC(=S)Nc1ccc(OC(F)(F)F)cc1 | – | inconclusive [inhibitor, single point] |
| CC1Sc2ccc(C(=O)N3CCCC(C(F)(F)F)C3)cc2NC1=O (stereo unspecified) | – | inconclusive [inhibitor, partial curve] |
| Cc1ccc(C)c(NC(=S)NCCSc2ccc(Cl)cc2)c1 | – | active: 16.4 µM |
| Cc1cc(C)cc(-n2ccnc(NCCc3ccccc3)c2=O)c1 | – | inconclusive [inhibitor, single point] |
| COc1ccc(NC(=O)c2c(SC)nsc2SC)cc1 | inactive: -15.8% | – |
| COc1ccc(OC)c(-c2nc3cc4ccccc4cc3nc2-c2ccccc2)c1 | – | inconclusive [inhibitor, single point] |
| CCN(c1ccc(NC(=O)c2ccc(N3CCCC3=O)cc2)cc1)C(C)C | – | inconclusive [inhibitor, single point] |
| CCc1cccc(NC(=S)N2CCC(c3ccccc3)C2)c1 (stereo unspecified) | – | inconclusive [inhibitor, single point] |
| Nc1nc2c(nc(Cl)n2C2OC(CO)C(O)C2O)c(=O)[nH]1 (stereo unspecified) | – | inconclusive [inhibitor, partial curve] |
| CCOc1ccc(OCC(=O)OCC(=O)NNC(=O)c2ccc([N+](=O)[O-])cc2)cc1 | inactive: -6.38% | – |
| Cc1cc(=O)[nH]c(SCC(=O)Nc2cccc(C(F)(F)F)c2)n1 | – | inconclusive [inhibitor, single point] |
| CC1=C(C(=O)OCc2ccccc2)N2C(=O)[C@@H](NC(=O)OCc3ccccc3)[C@H]2SC1 | – | inconclusive [inhibitor, single point] |
| COc1ccccc1/C=c1/[nH]c(=O)/c(=C\c2ccccc2OC)[nH]c1=O | – | inconclusive [inhibitor, partial curve, poor fit] |
| COc1ccc(-c2nc(CS(=O)CC(=O)NCCc3ccccc3)c(C)o2)cc1OC (stereo unspecified) | – | inconclusive [inhibitor, single point] |
| CN(CC(=O)Nc1cccc(Cl)c1)S(=O)(=O)/C=C/c1ccccc1 | – | inconclusive [inhibitor, single point] |
| CCOC(=O)c1cc2c(=O)n3ccccc3nc2n(CC(C)C)c1=NC(=O)COc1ccc(Cl)cc1 | – | inconclusive [inhibitor, partial curve] |
| CC(C)Oc1ccc(CCC(=O)N/N=C/c2ccncc2)cc1 | – | inconclusive [inhibitor, partial curve] |
| C=CCCC(=O)N1CCC(n2nccc2NC(=O)c2ccccc2C)CC1 | inactive: -1.1% | – |
| Cc1c(C(=O)OCC(=O)Nc2cccc(S(N)(=O)=O)c2)oc2c1ccc1ccccc12 | – | inconclusive [inhibitor, single point] |
| Cc1ccc2oc(C(=O)Nc3ccc(S(=O)(=O)N4CCCC(C)C4)cc3)cc(=O)c2c1 (stereo unspecified) | – | active: 8.2 µM |

| SMILES | activity change, negative = growth inhibition | Potency |
| --- | --- | --- |
| O=C(Cc1cccs1)N1CCCC(c2nc3c(nnn3Cc3ccccc3Cl)c(=O)[nH]2)C1 (stereo unspecified) | – | inconclusive [inhibitor, partial curve, poor fit] |
| Cc1ccc(N2CC(C(=O)Nc3nc4ccc(S(C)(=O)=O)cc4s3)CC2=O)cc1 (stereo unspecified) | inactive: 13.7% | – |
| COc1cccc(C(=O)NCC2(c3ccccc3)CCCC2)c1 | – | active: 14.6 µM |
| CCN(Cc1ccccc1)Cc1ccc(OCc2ccccc2)cc1 | – | inconclusive [inhibitor, single point] |
| CCn1ccnc1CN(C)Cc1nc(-c2ccc3c(c2)OCO3)no1 | inactive: -24.4% | – |
| COc1ccc(CN(C)C[C@@H]2OCCCC[C@H](C)Oc3ccc(NC(=O)Cc4ccccc4)cc3C(=O)N([C@@H](C)CO)C[C@@H]2C)cc1 | – | active: 23.1 µM |
| Cc1ccc(C)c(N2CCN(C(=O)c3cnn(C(C)(C)C)c3C3CCN(C(=O)OC(C)(C)C)CC3)CC2)c1 | – | inconclusive [inhibitor, single point] |
| CCc1ccc2c(COC(=O)C3CSC4(C)CCC(=O)N34)cc(=O)oc2c1 (stereo unspecified) | – | inconclusive [inhibitor, single point] |
| O=C(O)CC/C(=N\Nc1ccc(S(=O)(=O)N2CCOCC2)cc1[N+](=O)[O-])c1cccs1 | – | inconclusive [inhibitor, single point] |
| COc1ccc(OC)c(NC(=O)CCCc2nnc3n(C(C)C)c(=O)c4sccc4n23)c1 | – | inconclusive [inhibitor, partial curve] |
| CCn1cc2nc(SCc3cccc(C(F)(F)F)c3)n(Cc3ccc(Cl)cc3)c(=O)c2n1 | – | active: 8.2 µM |
| CNC(=O)/C(C#N)=C/c1ccc(OCCOc2ccccc2)cc1 | – | inconclusive [inhibitor, single point] |
| C=CC(=O)Nc1cccc(Oc2ccnc3[nH]ccc23)c1 | – | inconclusive [inhibitor, single point] |
| Cc1ccc(Cl)cc1-n1nnc(-c2nsc(NC(=O)c3ccccc3Cl)n2)c1C | – | inconclusive [inhibitor, partial curve] |
| CCCCN1C(=O)C(=O)NC[C@@H]1Cc1ccc(O)cc1 | inactive: -4.63% | – |
| Cc1ccc(N(CC(=O)N2CCN(c3cccc(Cl)c3)CC2)S(=O)(=O)c2c(C)noc2C)cc1 | – | inconclusive [inhibitor, single point] |
| COc1ccc(C)cc1NC(=O)N1CCC(CN2CCOCC2)CC1 | inactive: 16.8% | – |
| COc1ccc(OC)c(N(CC(=O)N2CCN(c3cc(Cl)ccc3C)CC2)S(C)(=O)=O)c1 | – | inconclusive [inhibitor, single point] |
| CCOC(=O)c1c[nH]n2c(=S)ncnc12 | – | inconclusive [inhibitor, single point] |
| CCS(=O)(=O)N1CCN(c2ccc([N+](=O)[O-])c(N3CCOCC3)c2)CC1 | inactive: -0.0393% | – |
| Cn1c(=O)c([N+](=O)[O-])c(Cl)c2ccccc21 | – | active: 4.61 µM |
| COc1ccc(CNC(=O)C(C)N2CCN(c3ccc(C(C)=O)cc3)CC2)cc1 (stereo unspecified) | – | inconclusive [inhibitor, single point] |

| SMILES | activity change, negative = growth inhibition | Potency |
| --- | --- | --- |
| CCC[C@H]1CC(=O)C=C(c2ccsc2)ON1C(=O)OC(C)(C)C | – | inconclusive [inhibitor, single point] |
| CCOc1ccc2[nH]c(=O)c(CN(CCc3ccccc3)C(=O)N3CCOCC3)cc2c1 | – | inconclusive [inhibitor, partial curve] |
| COc1ccc(Cl)cc1NC(=O)NCCn1c(=O)oc2ccc(C)cc21 | – | inconclusive [inhibitor, single point] |
| COc1cc2c(cc1OC)[C@@H](NC(=O)COc1ccccc1)[C@H](OCc1ccccc1)C2 | – | inconclusive [inhibitor, partial curve] |
| CCc1ccc(-n2c(=O)c3ccccc3n(CC(=O)NCCc3ccc(OC)c(OC)c3)c2=O)cc1 | – | inconclusive [inhibitor, single point] |
| Cc1nc2ccc(NC(=O)c3cnc(Cl)c(Cl)c3)cc2s1 | – | inconclusive [inhibitor, single point] |
| COc1ccc(S(=O)(=O)N2CCOCC2)cc1C(=O)NCC(c1ccccc1)c1ccccc1 | – | inconclusive [inhibitor, partial curve] |
| O=C(c1ccc(-c2ccccc2Cl)o1)N1CCCC(C(F)(F)F)C1 (stereo unspecified) | – | inconclusive [inhibitor, single point] |
| CC(C)(C)CC(=O)Nc1ccc(S(=O)(=O)N2CCCC2)cc1 | – | inconclusive [inhibitor, single point] |
| CC1CCCC(NC(=O)COC(=O)[C@@H]2CC(O)CN2S(=O)(=O)c2ccc3c(c2)OCCO3)C1C (stereo partly specified) | – | inconclusive [inhibitor, partial curve, poor fit] |
| CC(CNC(=O)c1ccc(OC2CCN(Cc3ccccn3)CC2)cc1)Oc1cccnc1 (stereo unspecified) | – | inconclusive [inhibitor, single point] |
| COc1ccc(/C=N/NC(=O)c2ccc(NC(=O)c3ccccc3Br)cc2)cc1 | – | inconclusive [inhibitor, partial curve, poor fit] |
| C=CCSc1cc(C)nc2c(-c3ccccc3)c(C)nn12 | – | inconclusive [inhibitor, single point] |
| O=C(NCc1ccco1)C1Cc2ccccc2CN1S(=O)(=O)c1ccccc1F (stereo unspecified) | – | inconclusive [inhibitor, single point] |
| COc1cccc(OC)c1CC1SC(=O)NC1=O (stereo unspecified) | inactive: -25% | – |
| CCc1ccc(NC(=O)CN(c2ccccc2)S(=O)(=O)N(C)C)cc1 | inactive: -10.9% | – |
| Cn1cc(S(C)=O)c(=O)c2ccc(F)cc21 (stereo unspecified) | inactive: -0.896% | – |
| CCNC(=O)c1ccc(-n2nc(C)cc2-c2ccccc2)cc1 | – | inconclusive [inhibitor, partial curve, poor fit] |
| CCC(OC(=O)C(C)N1C(=O)C(=O)c2ccccc21)C(=O)Nc1ccccc1OC (stereo unspecified) | – | active: 5.8 µM |
| CC1(C(=O)Nc2ccc3c(c2)OCCO3)CN(S(C)(=O)=O)CC(=O)N1Cc1cccc(F)c1 (stereo unspecified) | inactive: -7.77% | – |
| CCCOc1ccc(F)cc1-c1cc(C(=O)NCc2cc(C(F)(F)F)cc(C(F)(F)F)c2)[nH]n1 | – | inconclusive [inhibitor, single point] |
| O=[N+]([O-])c1cccc(CON=Cc2ccccc2O)c1 | – | inconclusive [inhibitor, single point] |
